# Data published in PMC4336329 (PLoS ONE, 2015).
# Out of some 310,000 compounds screened, about 2,200 (0.71%) showed an effect of 50% or more. Effects have a minus sign here. The list shows a part of the results.
# Target: human ether-à-go-go-related gene (hERG) potassium channel (human, UniProt Q12809)
# Experiment: primary screen, population patch clamp on CHO cells stably expressing hERG
# Chain of human ether-à-go-go-related gene (hERG) potassium channel (Q12809 whole entry, looked up): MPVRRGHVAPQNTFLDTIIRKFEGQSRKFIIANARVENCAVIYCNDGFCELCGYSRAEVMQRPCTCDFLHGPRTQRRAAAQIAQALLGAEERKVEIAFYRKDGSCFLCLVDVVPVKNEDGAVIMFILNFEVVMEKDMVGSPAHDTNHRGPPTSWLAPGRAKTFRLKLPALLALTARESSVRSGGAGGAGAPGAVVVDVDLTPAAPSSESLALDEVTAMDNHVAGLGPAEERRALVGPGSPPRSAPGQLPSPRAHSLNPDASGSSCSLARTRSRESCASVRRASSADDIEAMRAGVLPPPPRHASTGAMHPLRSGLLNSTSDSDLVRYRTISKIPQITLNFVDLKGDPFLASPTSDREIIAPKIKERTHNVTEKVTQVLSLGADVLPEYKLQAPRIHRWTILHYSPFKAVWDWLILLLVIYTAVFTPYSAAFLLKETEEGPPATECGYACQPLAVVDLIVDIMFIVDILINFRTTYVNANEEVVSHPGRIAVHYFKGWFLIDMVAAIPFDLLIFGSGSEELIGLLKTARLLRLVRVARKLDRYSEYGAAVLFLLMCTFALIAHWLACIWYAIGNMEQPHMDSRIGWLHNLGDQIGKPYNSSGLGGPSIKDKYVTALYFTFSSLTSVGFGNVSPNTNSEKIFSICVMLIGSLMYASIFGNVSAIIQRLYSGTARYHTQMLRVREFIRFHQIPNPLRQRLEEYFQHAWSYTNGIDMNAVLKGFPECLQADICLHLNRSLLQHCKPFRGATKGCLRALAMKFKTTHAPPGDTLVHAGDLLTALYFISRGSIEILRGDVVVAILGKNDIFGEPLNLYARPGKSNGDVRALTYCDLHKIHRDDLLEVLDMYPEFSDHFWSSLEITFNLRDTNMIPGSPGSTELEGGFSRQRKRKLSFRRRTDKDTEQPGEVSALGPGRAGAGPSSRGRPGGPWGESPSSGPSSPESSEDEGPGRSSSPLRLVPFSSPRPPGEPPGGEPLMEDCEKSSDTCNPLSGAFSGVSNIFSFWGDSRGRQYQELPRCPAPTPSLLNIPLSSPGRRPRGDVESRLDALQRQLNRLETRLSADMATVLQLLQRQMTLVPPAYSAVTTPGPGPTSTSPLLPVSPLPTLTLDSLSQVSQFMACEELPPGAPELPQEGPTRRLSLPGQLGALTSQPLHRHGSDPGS
row,Compound,"hERG current change (%, negative = inhibition) at 1uM [%]"
1,Cc1nnc(Nc2ccc(C(=O)NCCO)cc2)c2ccccc12,10.2
2,COCCNCCCCOc1c(Cl)cc(C)cc1Br,3.97
3,CCN(CC)C(=O)CSc1nnc(COc2ccccc2)n1CC,8.23
4,Cc1cccn2c(=O)c(C(=O)NCCCN3CCCCC3C)c(O)nc12 (stereo not shown),9.97
5,COCCNC(=O)C(c1ccc(F)cc1)N(CCOC)C(=O)CCC(=O)Nc1nccs1 (stereo not shown),1.04
6,COc1ccc(/C(N)=N/OC(=O)c2cccs2)cc1,18.5
7,CCCC(=O)N=c1sc2c(OC)ccc(OC)c2n1C,8.85
8,COc1ccc(C2CC(=O)Oc3c2c(=O)n(C)c2ccccc32)c(OC)c1OC (stereo not shown),15.3
9,O=C(c1ccc[nH]c1=S)N1CCN(S(=O)(=O)c2ccc(Br)cc2Cl)CC1,6.98
10,Cc1nc2c(c(=O)c3ccccc3n2C)c(=O)n1-c1ccc(F)cc1,4.74
11,O=C(Cn1cc(C=C2C(=O)NC(=O)NC2=O)c2ccccc21)NCC1CCCO1 (stereo not shown),15.8
12,CC(C)CCc1c(O)nc(SCC(C)C)[nH]c1=O,6.91
13,COc1ccccc1CNC(=O)/C=C/c1cc2c(cc1Br)OCO2,13.4
14,CC(=O)c1ccc(NC(=O)C2=CC(c3ccco3)=NS(=O)(=O)N2C)cc1,13
15,COc1ccc(S(=O)(=O)NCC(c2cccnc2)N2CCN(Cc3ccccc3)CC2)cc1C (stereo not shown),-65.5
16,COc1ccc(-n2c(O)c(C(C)=NCc3ccco3)c(=O)[nH]c2=O)cc1,-5.52
17,O=C(Nc1cc(C(F)(F)F)ccc1-n1cncn1)c1ccc(F)cc1Cl,4.22
18,CC(C)c1ccccc1NC(=O)CNCCc1ccc(C(F)(F)F)cc1.O=C(O)C(=O)O,5.68
19,O=C(COC(=O)c1cnccn1)NCc1ccc2c(c1)OCO2,10.9
20,O=C(NCCc1ccco1)C(=O)NCC1OCCCN1S(=O)(=O)c1ccccc1 (stereo not shown),13.4
21,COc1ccc(N(CC(=O)Nc2cccc(C)c2C)S(=O)(=O)c2c(C)[nH]c(=O)[nH]c2=O)cc1,10.4
22,CCC12CN(C(=O)c3ccc(C)cc3)CC(CC)(CN(C(=O)c3ccc(C)cc3)C1)C2=O,1.35

row,Compound,"hERG current change (%, negative = inhibition) at 1uM [%]"
1,O=C(/C=C/c1ccc(Cl)c([N+](=O)[O-])c1)c1ccc(O)cc1,12.6
2,CC(=O)Oc1ccc(-c2cccc(C(=O)Oc3ccccc3)c2)cc1,14.1
3,COc1ccc(C)cc1NC(=S)Nc1ccccc1SC,4.16
4,CCCc1c(C)nn(C(=O)/C(C#N)=N/Nc2ccccc2[N+](=O)[O-])c1C,15.9
5,Cc1ccc(CNc2ncc(-c3ccc4c(c3)OCO4)n2C)cc1.O=C(O)C(=O)O,-10
6,Br.Oc1ccc(-c2cn3ccccc3n2)cc1,6.23
7,COc1cc(OC)cc(C(=O)NCC(=O)OCC(=O)NC(C)(C)C)c1,15.1
8,CCCCCCC(=O)NCC(=O)OCC(=O)c1ccccc1,-2.3
9,Cc1csc(SCC(=O)Nc2nccs2)n1,10
10,O=C(NCc1ccc(Cl)cc1)c1cccc(NC2=NC3CS(=O)(=O)CC3S2)c1 (stereo not shown),0.469
11,COc1cc(Br)c(CN2CCCN(C)CC2)cc1OC,8.5
12,NC(=O)CNCCC(c1ccccc1)c1ccccc1,-3.29
13,CCC(C(=O)NCCc1ccc(OC)cc1OC)n1nc(C)n2c(cc3occc32)c1=O (stereo not shown),0.58
14,CCOc1ccc(S(=O)(=O)N2Cc3ccccc3CC2C(=O)O)cc1 (stereo not shown),15.8
15,OCC(O)C(O)C(O)C(O)C1NCCS1 (stereo not shown),9.15
16,COC(=O)c1ccc(N2NC(=O)/C(=C/c3ccc(OC)c(OC)c3)C2=O)cc1,14.7
17,CCC1=NC(c2ccc(OC)cc2OC)N(O)C1(C)C (stereo not shown),0.757
18,Cn1nc(C(=O)N2CCCCC2)c2c1-c1ccccc1S(=O)(=O)C2,13.1
19,CCOC(=O)c1ccc(N2CSC3=C(C#N)C(c4cccs4)CC(=O)N3C2)cc1 (stereo not shown),12.2
20,COc1cc2cnc(-c3ccccc3)c(C(=O)c3ccc(F)cc3)c2cc1OC,7.27
21,COc1cc2ccccc2cc1C(=O)N(CCN(C)C)c1nc2c(C)cccc2s1.Cl,16.3
22,O=c1c2ccccc2nc(-c2ccco2)n1/N=C/c1ccccc1O,7.11

row,Compound,"hERG current change (%, negative = inhibition) at 1uM [%]"
1,O=C1CCc2ccc(OCCCCN3CCN(c4cccc(Cl)c4Cl)CC3)cc2N1,9.3
2,COc1cccc2sc(N(CCCN(C)C)C(=O)c3ccc(S(=O)(=O)N4CCc5ccccc5C4)cc3)nc12.Cl,9.59
3,Cc1oc(C)c2c(=O)ccc3c(c12)OC(N)=C(C#N)C3c1ccccc1Cl (stereo not shown),8.67
4,Cc1ccc(C(=O)Nc2ccccc2C(=O)NC2CCCCC2)cc1S(=O)(=O)N1CCOCC1,22
5,O=C(C1=C[C@@H](c2ccccc2)C[C@@H](OCCCCO)O1)N1CCN(Cc2ccc3c(c2)OCO3)CC1,-10.6
6,Cc1cc(Br)ccc1OCCCCN1CCCCC1.O=C(O)C(=O)O,-66.6
7,Cc1ccc2c(c1)N(CC(=O)N1CCCCCC1)C(=O)CO2,6.11
8,COc1ccc(C=C2C(=O)N(C)C(=O)N(C)C2=O)cc1COc1ccc(NC(C)=O)cc1,10.1
9,Brc1cccc(OCCCCn2cncn2)c1,12.9
10,Clc1ccc(-c2ccc(C=Nc3ccc(N4CCOCC4)cc3)o2)c(Cl)c1,6.06
11,COc1ccc(N2CCN(C(=O)CN(c3ccc(OC)cc3)S(=O)(=O)c3ccccc3)CC2)cc1,-2.11
12,Cc1cc(OC(C)C(=O)NC2CC(C)(C)NC(C)(C)C2)c2c(C)cc(=O)oc2c1 (stereo not shown),16.8
13,O=C1c2cccc3cccc(c23)N1CN1CCN(c2ccccn2)CC1,14.6
14,NS(=O)(=O)c1ccc(CCNC(=O)C2CCN(c3ncnc4c3nc3n4CCCCC3)CC2)cc1,12.5
15,O=C(c1cc(Br)c(Br)s1)N1CCN(c2ccccn2)CC1,9.19
16,Cc1c(NCc2ccccc2O)c(=O)n(-c2ccccc2)n1C,-2.78
17,CCN1C(=O)C(=O)N(CC(=O)c2cc(C)n(C3CC3)c2C)C1=O,5.71
18,COc1ccc(NC(=S)NC(NC(C)=O)C(Cl)(Cl)Cl)c([N+](=O)[O-])c1 (stereo not shown),8.28
19,Cc1ccc(Cn2nnc3c(=O)n(CC(=O)NCc4ccc5c(c4)OCO5)cnc32)cc1,3.38
20,CC(C)OCCCNC(=O)COc1ccc2oc3c(c2c1)CCCC3,11.1
21,O=C(Nc1cccc(N2C(=O)C3C4C=CC(C4)C3C2=O)c1)c1cccs1 (stereo not shown),14.8
22,COCCn1c(SCC(=O)Nc2cccc(OC)c2)nnc1-c1ccccc1,3.2

row,Compound,"hERG current change (%, negative = inhibition) at 1uM [%]"
1,O=C(NCCCN1CCCC1=O)Nc1ccccc1F,13.1
2,O=c1nc2ccc(Cl)cn2c2ccc(S(=O)(=O)N3CCOCC3)cc12,11.3
3,CCCC(C)c1nnc(NC(=O)CS(=O)(=O)Cc2ccccc2)s1 (stereo not shown),3.48
4,Cc1[nH]c(=O)[nH]c(=O)c1Sc1ccccc1[N+](=O)[O-],14.9
5,CCCCCCNCC(=O)N1CCC(Cc2ccccc2)CC1,-49.9
6,Cc1ccc2nsnc2c1NC(=O)c1ccc(-c2cc(Cl)ccc2Cl)o1,12.4
7,COc1cc(C=O)ccc1OCCOCCOc1cc(C)ccc1Cl,-1.67
8,COc1ccc2c(c1)OC1=C(C(=O)CCC1)C2C1=C(O)CCCC1=O (stereo not shown),14.7
9,CC(CC(=O)O)CC(=O)Nc1cccc([N+](=O)[O-])c1 (stereo not shown),-0.875
10,N#Cc1c(Sc2ncc(C(F)(F)F)cc2Cl)nsc1C/C=N\OCc1ccccc1Br,2.32
11,COc1cccc(-n2cc(-c3ccc(F)cc3)[nH]c2=S)c1,14
12,COc1cc(C(=O)N2CCc3ccccc32)c([N+](=O)[O-])cc1OC,14.1
13,CC(NC(=O)Nc1ccc2c(c1)OCO2)C1CCCO1 (stereo not shown),6.5
14,O=C(O)c1ccccc1-c1csc(-c2ccccc2)n1,13.1
15,Cn1c(SCC(=O)Nc2ccc3c(c2)OCCO3)nnc1-c1cccnc1,12.9
16,CCN(CC)c1ccc(/C=N/N2C(C)CCCC2C)c(O)c1 (stereo not shown),12.6
17,Cc1ccc(NC(=O)NCc2c(C)nn(C)c2C)cc1Cl,12.4
18,Cc1n[nH]c(C)c1N1C(=O)c2cccc3c(Br)ccc(c23)C1=O,6.88
19,NC(=O)CSc1nnc(COc2ccccc2)n1Cc1ccco1,11
20,COc1cccc(N(CC(=O)Nc2cccc(F)c2)S(C)(=O)=O)c1,8.43
21,Cc1ccc(CNC(=O)c2ccccc2SCC(=O)NCC2CCCCC2)cc1,-2.39
22,CCOC(=O)C1(C)NC(c2cccs2)C2C(=O)N(c3ccccc3)C(=O)C21 (stereo not shown),17.5
